Assay [1] deals with T1, FLAG-tagged NCOA7-AS-WT, expressed in U87-MG cells (human) (UniProt Q8NI08).
T1 sequence: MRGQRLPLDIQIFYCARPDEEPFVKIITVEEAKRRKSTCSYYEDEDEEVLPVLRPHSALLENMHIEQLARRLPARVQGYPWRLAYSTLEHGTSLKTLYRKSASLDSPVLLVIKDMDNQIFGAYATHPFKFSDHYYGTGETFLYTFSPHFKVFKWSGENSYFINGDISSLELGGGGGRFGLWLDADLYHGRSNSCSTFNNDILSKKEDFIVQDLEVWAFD
Briefly: co-IP; U87-MG cells transduced with FLAG-tagged NCOA7-AS or E2-Crimson; FLAG immunoprecipitation; immunoblot of endogenous SNX proteins. In general terms: Immunoblotting shows a protein as a band on a membrane.

Sequences of proteins named here, by UniProt entry; tags and fusion partners are left off. A change or cut given only in a name is not applied to a line headed by its entry.
UniProt Q13596: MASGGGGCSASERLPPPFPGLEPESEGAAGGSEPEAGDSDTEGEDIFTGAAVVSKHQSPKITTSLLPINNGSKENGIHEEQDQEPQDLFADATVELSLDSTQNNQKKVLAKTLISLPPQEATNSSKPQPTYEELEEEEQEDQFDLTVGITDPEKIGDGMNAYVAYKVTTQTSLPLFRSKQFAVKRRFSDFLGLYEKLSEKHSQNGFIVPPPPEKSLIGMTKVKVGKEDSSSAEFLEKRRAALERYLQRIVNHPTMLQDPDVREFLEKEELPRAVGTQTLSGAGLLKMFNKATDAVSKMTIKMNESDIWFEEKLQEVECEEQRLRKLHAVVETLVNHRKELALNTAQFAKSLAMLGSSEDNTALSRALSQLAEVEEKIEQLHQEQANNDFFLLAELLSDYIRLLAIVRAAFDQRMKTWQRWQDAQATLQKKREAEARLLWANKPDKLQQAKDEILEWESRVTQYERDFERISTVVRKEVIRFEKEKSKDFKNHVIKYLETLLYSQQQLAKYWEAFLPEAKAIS

Assay [2] addresses T2, GST-tagged NCOA7-AS (NCOA7-AS-WT-GST) (human) (UniProt Q8NI08).
T2 sequence: T1 sequence
Briefly: pull-down; GST-tagged proteins (14-35 μg) on glutathione agarose beads, 85 μg MBP-tagged protein, 2 h at 4 °C; 50 mM Tris-HCl pH 8, 600 mM NaCl, 5 mM β-mercaptoethanol, 10% glycerol; Western blot (GST, MBP); both purified.

The target in assay [3] is T3, GST-tagged NCOA7-AS TLDc domain (NCOA7-AS-TLDc-GST) (human) (UniProt Q8NI08).
T3 sequence: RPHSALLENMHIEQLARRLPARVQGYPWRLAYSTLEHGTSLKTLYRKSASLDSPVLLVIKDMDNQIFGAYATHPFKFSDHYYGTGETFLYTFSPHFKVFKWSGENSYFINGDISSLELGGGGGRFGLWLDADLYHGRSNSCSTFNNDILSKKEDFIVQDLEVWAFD
The description is as above.

Assay [4] has as its target T4, GST-tagged NCOA7-AS N-terminal domain (NCOA7-AS-NTD-GST) (human) (UniProt Q8NI08).
T4 sequence: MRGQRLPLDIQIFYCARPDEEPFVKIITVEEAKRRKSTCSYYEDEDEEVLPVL
Described as above.

For assay [5], the target named is T5, GST-tagged NCOA7-AS-Y14F (human) (UniProt Q8NI08).
T5 sequence: T1 sequence with Y14F
Described as above.

Experimental findings from article PMC13543948, “SNX-BAR proteins 5 and 6 are required for NCOA7-AS antiviral activity against influenza A virus” (The Journal of Biological Chemistry, 2026) are described below.

Where a chain is given by its changes, count along the chain named. These are yes or no findings as the source states them, for the method shown. For part of these data: In cells and extracts the contact can be indirect. Some binding calls cover weakened binding; strength is not graded here. Tags and fused reporters may be left off the sequences shown.

As for “sorting nexin 1 (SNX1), endogenous in U87-MG cells (from UniProt Q13596 1-522)”, in assay [1], the binding entry was “binds”.

In the case of “MBP-tagged PX domain of SNX1 (MBP-PX-SNX1) (from UniProt Q13596 143-272) (domain or fragment)”, the binding result in assay [2] was “no binding”.

B1: MBP-tagged PX domain of SNX6 (MBP-PX-SNX6) (domain or fragment, UniProt Q9UNH7 26-173)
chain: LQSDAALQVDISDALSERDKVKFTVHTKSSLPNFKQNEFSVVRQHEEFIWLHDSFVENEDYAGYIIPPAPPRPDFDASREKLQKLGEGEGSMTKEEFTKMKQELEAEYLAIFKKTVAMHEVFLCRVAAHPILRRDLNFHVFLEYNQDL
Consider B1, for which the binding result is “no binding” in assay [3], “binds” in assay [2], “binds” in assay [4] and “binds” in assay [5].
